The whole screen tested about 320,000 compounds, of which about 9,100 (2.8%) were called active. Inconclusive means that the source gave no clear call. Such entries were picked first, then a sample of the others. Calls come from the whole dose curve; as a rule, active = well fitted activation curve with a large enough effect; inconclusive = small, poorly fitted or top-dose-only effect; inactive = no such curve, though single readings can be large or run the other way. No potency is given beside an inconclusive call; the fits are too rough.
Experiment: qHTS Assay for Rab9 Promoter Activators; note: nearly all actives have a fitted effect of over 60% in size; for activation, negative = inhibition: % of control where 0% means no effect
Conditions: Huh7 Rab9 promoter-luciferase reporter, luminescence, 24 h; series mostly up to 9.22 µM; activation, negative = inhibition: at the top concentration
Outline: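 Measured in stably transfected Huh7 cells bearing a Rab9 promoter–luciferase construct: 24 h compound treatment at 37 °C, followed by luminescence detection.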
Potency is the fitted concentration of half-maximal effect; tags give direction and shape of the fitted curve.

Row | Compound | Potency | activation, negative = inhibition
1 | NC(=O)c1ccsc1NC(=O)c1coc2ccccc2c1=O | active: 2 µM | 
2 | CCCCOC(=O)Nc1ccc(C(C)C)cc1 | inconclusive [activator, partial curve] | 
3 | C=CCC1(CC=C)CCCN1C(=O)C1CCC(=O)N(CCc2ccc(OC)cc2)C1 (stereo unspecified) | active: 2.51 µM | 
4 | O=C(Nc1ccc2oc(-c3cccc(F)c3)nc2c1)c1ccccc1F | inconclusive [activator, single point] | 
5 | COc1cc2c(cc1NCc1ccccn1)oc1ccccc12 | inconclusive [activator, single point] | 
6 | CCOC(=O)CSc1nnc(NC(=O)c2cccc(S(=O)(=O)N3CCCCCC3)c2)s1 |  | inactive: 2.29%
7 | CSc1nc(C(C)C)ccc1CNC(=O)CC(C)c1ccccc1 (stereo unspecified) |  | inactive: 6.25%
8 | CN(C)S(=O)(=O)c1ccc(Cl)c(C(=O)Nc2ccc(S(=O)(=O)N3CCOCC3)cc2)c1 | inconclusive [activator, single point] | 
9 | O=C(COc1ccccc1Cl)Nc1ccc2c(c1)OCCO2 | active: 1.58 µM | 
10 | COc1ccc2[nH]c(-c3ccccc3)cc2c1 | active: 0.891 µM | 
11 | CCC(Oc1ccccc1)C(=O)OCC(=O)Nc1sccc1C(N)=O (stereo unspecified) |  | inactive: -7.14%
12 | CCCCSc1ccc2nc(-c3ccc(C#N)cc3)cn2c1 | inconclusive [activator, partial curve] | 
13 | COc1cccc2c1C(=O)c1ccc3ccccc3c1C2=O | inconclusive [activator, partial curve] | 
14 | C/C(=N/NC(=O)c1cc(O)c(O)c(O)c1)c1ccc([N+](=O)[O-])cc1 |  | inactive: 2.85%
15 | CN(C)c1ccc(-c2nnc(-c3cccs3)o2)cc1 | active: 0.316 µM | 
16 | CC(=C/c1ccccc1)/C=C1/SC(N2CCOCC2)=NC1=O | inconclusive [activator, single point] | 
17 | O=C(/C=C/c1cccs1)Nc1scc(-c2ccccc2)c1C(=O)O | active: 1.12 µM | 
18 | O=C(CCN1C(=O)/C(=C/c2ccc(Cl)cc2)SC1=S)Nc1cccc(C(=O)O)c1 |  | inactive: -2.6%
19 | COCc1cc(=O)[nH]c(-c2ccc(C(F)(F)F)cc2)n1 | inconclusive [activator, single point] | 
20 | O=C(Nc1nc2ccccc2s1)c1ccccc1[N+](=O)[O-] | inconclusive [activator, partial curve] | 
21 | O=c1c2ccccc2oc2cc(-c3ccc(CN4CCOCC4)cc3)ccc12 | inconclusive [activator, partial curve] | 
22 | O=C(COc1ccc2ccc(=O)oc2c1)N1CCc2ccccc21 | inconclusive [activator, single point] | 
23 | Cc1nn(-c2ccc(Cl)nn2)c(=O)c2ccccc12 | inconclusive [activator, partial curve] | 
24 | O=C(Nc1nnc(/C=C/c2ccccc2)s1)c1ccco1 |  | inactive: 22.1%
25 | COC(=O)c1ccc(OCc2cc(=O)n3ccsc3n2)cc1 | inconclusive [activator, single point] | 
26 | Cc1nc(NC(=O)c2ccccc2)sc1-c1csc(N)n1 |  | inactive: 29.1%

Row | Compound | Potency | activation, negative = inhibition
27 | NNc1nc2ccccc2c(=O)n1Cc1ccccc1 | inconclusive [activator, partial curve] | 
28 | Cc1cc(C(=O)CSc2ccc(Cl)cc2)cc(C)c1OC(=S)N(C)C | inconclusive [activator, single point] | 
29 | CS(=O)(=O)Nc1ccc(C(=O)Nc2ccc3c(c2)OCO3)cc1 | inconclusive [activator, single point] | 
30 | c1ccc2c(-c3csc(-c4ccncc4)n3)c[nH]c2c1 | inconclusive [activator, single point] | 
31 | CCOC(=O)c1sc(=NC(=O)c2ccc(C)cc2)n(C)c1C | inconclusive [activator, single point] | 
32 | O=C(Nc1ccc2nc3n(c(=O)c2c1)CCCCC3)c1ccccc1Cl | inconclusive [activator, partial curve] | 
33 | CC1(C)O[C@@H]2[C@H](O1)[C@@H](COS(=O)(=O)O)O[C@H]2n1ccc(=O)[nH]c1=O |  | inactive: 0.343%
34 | Cc1cccc(/C=N/NC(=O)c2ccc(NC(=O)c3cccc(Cl)c3)cc2)n1 |  | inactive: -0.0766%
35 | CC(=O)Cc1nsc(NC(=O)c2ccc(-c3ccc(F)cc3)o2)n1 |  | inactive: 15.7%
36 | Cn1c(SCc2ccccc2[N+](=O)[O-])nnc1-c1cccnc1 | inconclusive [activator, single point] | 
37 | CCCCOc1ccc(-c2nc(=S)[nH][nH]2)cc1 | inconclusive [activator, single point] | 
38 | Cn1nc(C(=O)Nc2ccc(S(=O)(=O)N3CCCCC3)cc2)ccc1=O |  | inactive: 2.59%
39 | O=C(Nc1ccc2c(c1)CCC2)c1ccccc1F | active: 0.708 µM | 
40 | C/C(=N/NC(=O)c1ccccn1)c1ccncc1 | inconclusive [activator, single point] | 
41 | O=C(CSc1ccc(Cl)cc1)Nc1cccc(-c2nc3ncccc3o2)c1 |  | inactive: 8.77%
42 | CCc1ccc(Nc2ncc3c(n2)CC(C)CC3=O)cc1 (stereo unspecified) | active: 1.26 µM | 
43 | CC(=O)c1sc(NC(=O)c2cccs2)nc1C | inconclusive [activator, single point] | 
44 | O=C(c1noc2c1CCCC2)N1CCN(c2ccccc2)CC1 |  | inactive: 1.5%
45 | CC(=O)N1CCN(c2nc3ccc(Br)cc3s2)CC1 | inconclusive [activator, partial curve] | 
46 | COc1ccc2c(c1)C(=NN)c1cc(OC)ccc1-2 | inconclusive [activator, single point] | 
47 | Cc1ccc(N2CC(C(=O)Nc3c4c(nn3C(C)(C)C)CS(=O)(=O)C4)CC2=O)cc1 (stereo unspecified) |  | inactive: 0.817%
48 | c1ccc2c(c1)CCN(c1nc3cc4c(cc3s1)OCO4)C2 | active: 1.26 µM | 
49 | O=C(Nc1ccc(Cl)cc1)Nc1cccc(C(=O)O)c1 | active: 0.251 µM | 
50 | C/C(=N/NC(=O)c1ccc(C)s1)c1cccnc1 | inconclusive [activator, partial curve] | 
51 | O=C(O)c1ccccc1C(=O)Nc1nc(-c2ccc3ccccc3c2)cs1 | inconclusive [activator, single point] | 
